Data on 24 compounds can be found in publication PMC4336329 (PLoS ONE, 2015).

In all, about 310,000 compounds went through this assay and about 2,200 (0.71%) showed an effect of 50% or more. The effect is printed as a negative number. The list shows a part of the results.

Sequence of human ether-à-go-go-related gene (hERG) potassium channel (Q12809 whole entry, looked up): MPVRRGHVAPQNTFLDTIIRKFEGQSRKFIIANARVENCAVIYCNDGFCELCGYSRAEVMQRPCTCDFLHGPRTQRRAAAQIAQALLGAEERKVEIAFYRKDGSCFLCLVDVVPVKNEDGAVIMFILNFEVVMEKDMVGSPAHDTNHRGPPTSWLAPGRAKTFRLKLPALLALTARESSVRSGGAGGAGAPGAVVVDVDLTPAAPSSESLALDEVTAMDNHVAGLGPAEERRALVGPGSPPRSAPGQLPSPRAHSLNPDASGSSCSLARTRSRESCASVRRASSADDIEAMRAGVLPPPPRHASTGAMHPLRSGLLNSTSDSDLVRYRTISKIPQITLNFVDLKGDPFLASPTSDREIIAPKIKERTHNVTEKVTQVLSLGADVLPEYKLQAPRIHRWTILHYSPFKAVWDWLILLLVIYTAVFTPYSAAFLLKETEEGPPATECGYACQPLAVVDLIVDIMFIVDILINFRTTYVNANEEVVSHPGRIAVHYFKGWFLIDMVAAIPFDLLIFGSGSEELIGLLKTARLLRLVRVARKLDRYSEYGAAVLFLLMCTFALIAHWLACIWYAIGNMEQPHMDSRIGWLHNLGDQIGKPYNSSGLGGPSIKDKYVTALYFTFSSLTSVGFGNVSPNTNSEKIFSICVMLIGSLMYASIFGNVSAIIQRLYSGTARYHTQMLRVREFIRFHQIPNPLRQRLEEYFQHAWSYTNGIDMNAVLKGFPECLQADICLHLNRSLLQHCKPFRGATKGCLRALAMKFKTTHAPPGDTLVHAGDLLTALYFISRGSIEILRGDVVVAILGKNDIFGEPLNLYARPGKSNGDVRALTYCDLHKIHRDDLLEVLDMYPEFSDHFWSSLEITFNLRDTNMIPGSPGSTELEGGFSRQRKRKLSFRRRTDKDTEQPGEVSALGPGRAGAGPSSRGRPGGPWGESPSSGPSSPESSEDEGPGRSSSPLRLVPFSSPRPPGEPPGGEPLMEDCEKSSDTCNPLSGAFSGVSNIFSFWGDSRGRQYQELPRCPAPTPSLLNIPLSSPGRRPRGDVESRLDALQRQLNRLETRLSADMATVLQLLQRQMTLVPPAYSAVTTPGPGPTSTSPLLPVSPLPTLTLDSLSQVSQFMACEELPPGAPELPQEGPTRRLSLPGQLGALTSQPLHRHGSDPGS

This test has as its target human ether-à-go-go-related gene (hERG) potassium channel (human, UniProt Q12809). Description: primary screen, population patch clamp on CHO cells stably expressing hERG.
In the case of `Cc1cccc(NC2=C(Cl)C(=O)OC2NC(=O)c2ccccc2)c1` (stereo not drawn), the “hERG current change (%, negative = inhibition) at 1uM” value is given as 1.26%.

Consider `Clc1ccc(-c2cc(C3CCNCC3)[nH]n2)cc1`, for which the “hERG current change (%, negative = inhibition) at 1uM” value is given as 2.58%.

With `COCCNC(=O)COc1ccc(Oc2ccccc2)cc1`, the “hERG current change (%, negative = inhibition) at 1uM” value came out at 5.92%.

Consider `CS(=O)(=O)N1CCc2cc(-c3csc(NC(=O)C(c4ccccc4)c4ccccc4)n3)ccc21`, for which the “hERG current change (%, negative = inhibition) at 1uM” value is 8.72%.

Turning to `Clc1ccc(OCc2nc(-c3ccncc3)no2)c(Br)c1`, the “hERG current change (%, negative = inhibition) at 1uM” value is 8.56%.

As for `COC(=O)C1=C(C)NC(=S)N(C(C)=O)C1c1ccccc1` (stereo not drawn), the “hERG current change (%, negative = inhibition) at 1uM” value is on record as -3.49%.

In the case of `CC1CCCC(NC(=O)CCCn2c(=S)[nH]c3ccccc3c2=O)C1C` (stereo not drawn), the “hERG current change (%, negative = inhibition) at 1uM” value is 5.25%.

As to `O=C(CNCCC1=CCCCC1)Nc1ccccc1N1CCCCC1.O=C(O)C(=O)O`, the “hERG current change (%, negative = inhibition) at 1uM” value worked out at 11.8%.

As for `CC1CCN(C(=O)c2[nH]cnc2C(=O)NCc2ccc(CNC(=O)OC(C)(C)C)cc2)CC1`, the “hERG current change (%, negative = inhibition) at 1uM” value was found to be 13.2%.

With `CCOC(=O)CCn1c2nc(C)cc(C)c2c(=O)n1-c1ccccc1`, the “hERG current change (%, negative = inhibition) at 1uM” value is recorded as 2.21%.

For `O=C(NC(=S)NCC1CCCO1)c1cccs1` (stereo not drawn), the “hERG current change (%, negative = inhibition) at 1uM” value stood at 18.2%.

Regarding `NC(=O)Cn1c(O)c(N=NC(=O)CNC(=O)/C=C/c2ccccc2)c2ccccc21`, the “hERG current change (%, negative = inhibition) at 1uM” value was determined as 14.6%.

For the compound `CN(C)c1ccc(-c2sc(Nc3ccccc3)n[n+]2-c2ccc(F)cc2)cc1.[Cl-]`, the “hERG current change (%, negative = inhibition) at 1uM” value is reported as -15%.

For `N#Cc1sc2nc(-c3cccs3)cc(-c3ccc(F)cc3)c2c1N`, the “hERG current change (%, negative = inhibition) at 1uM” value stood at 12.8%.

For the compound `COc1cc(OC)cc(C(=O)NCC2CCCO2)c1` (stereo not drawn), the “hERG current change (%, negative = inhibition) at 1uM” value was found to be 9.15%.

For `NS(=O)(=O)c1ccc(CCNC(=O)CC(NC(=O)c2ccccc2Cl)c2ccccc2)cc1` (stereo not drawn), the “hERG current change (%, negative = inhibition) at 1uM” value is on record as 10.4%.

Take `CCOc1ccccc1C(=O)N1CCN=C1SCc1cccnc1`: the “hERG current change (%, negative = inhibition) at 1uM” value was 0.321%.

On to `Cc1ccc(OCC(=O)Nc2ccon2)c([N+](=O)[O-])c1`, for which the “hERG current change (%, negative = inhibition) at 1uM” value is recorded as 10.8%.

Regarding `COc1ccc(Cl)cc1NC(=O)COC(=O)C(CC(C)C)N1C(=O)C2CC=CCC2C1=O` (stereo not drawn), the “hERG current change (%, negative = inhibition) at 1uM” value is on record as 11.7%.

On to `CC1CCC(C(C)C)C(OCC(O)CN2CCCC(C)C2)C1.Cl` (stereo not drawn), for which the “hERG current change (%, negative = inhibition) at 1uM” value was 1.25%.

On to `Cc1sc(NC(=O)Cc2ccc3c(c2)OCO3)nc1-c1ccc2c(c1)CCN2C(=O)c1ccc(F)cc1`, for which the “hERG current change (%, negative = inhibition) at 1uM” value is given as -0.224%.

Consider `COc1ccccc1Cc1noc(C(C)(C)NC(=O)c2ccccc2)n1`, for which the “hERG current change (%, negative = inhibition) at 1uM” value came out at 5.38%.

As to `CC(C)(C)c1ccc(/C=N/n2cnnc2)cc1`, the “hERG current change (%, negative = inhibition) at 1uM” value turned out to be 15%.

For `COc1ccc(/C=N\NC(=O)CCN2CCN(c3ccccc3)CC2)cc1OC`, the “hERG current change (%, negative = inhibition) at 1uM” value is on record as -28.9%.
